Data from PubChem BioAssay AID624417 (National Center for Advancing Translational Sciences (NCATS), 2012).
Out of some 410,000 compounds screened, about 6,400 (1.6%) were called active. Inconclusive means that the source gave no clear call. Such entries were picked first, then a sample of the others. Calls come from the whole dose curve; as a rule, active = well fitted inhibition curve with a large enough effect; inconclusive = small, poorly fitted or top-dose-only effect; inactive = no such curve, though single readings can be large or run the other way. Potencies of inconclusive entries are left out as doubtful fits.

biological target: Glucagon-like peptide 1 receptor (Homo sapiens) (UniProt P43220); assay: qHTS of GLP-1 Receptor Inverse Agonists (Inhibition Mode); conditions: HEK293 GLP-1R CRE-luciferase, luminescence, 24 h, GLP-1R form is constitutively active; activity change, negative = inhibition: at 38.3 µM (top of the series) unless noted; note: nearly all actives have a fitted effect of over 55% in size
Sequence of UniProt P43220 (P43220 whole entry, looked up): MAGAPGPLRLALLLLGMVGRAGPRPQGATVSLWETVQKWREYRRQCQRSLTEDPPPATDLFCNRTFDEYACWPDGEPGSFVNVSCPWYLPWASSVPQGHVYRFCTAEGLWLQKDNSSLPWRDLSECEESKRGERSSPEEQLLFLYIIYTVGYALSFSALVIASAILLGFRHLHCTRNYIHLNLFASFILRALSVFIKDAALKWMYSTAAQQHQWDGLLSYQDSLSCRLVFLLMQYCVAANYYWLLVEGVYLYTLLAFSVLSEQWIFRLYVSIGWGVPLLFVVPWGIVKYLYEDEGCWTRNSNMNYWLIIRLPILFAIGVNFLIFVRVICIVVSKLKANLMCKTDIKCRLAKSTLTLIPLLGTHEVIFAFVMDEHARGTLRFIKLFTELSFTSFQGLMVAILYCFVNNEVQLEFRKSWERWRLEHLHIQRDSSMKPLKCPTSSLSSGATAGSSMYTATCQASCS
Outline: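 Readout was luciferase luminescence, measured 12 min after detection reagent at room temperature. Beforehand, GLP-1R reporter HEK293 cells had sat 12 h, then received compounds for 24 hr at 37 deg C.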
% is set by controls: 0 for no effect and ±100 for the full control effect; potency is the fitted concentration of half-maximal effect; tags give direction and shape of the fitted curve.

Question: How did the Potency turn out when `Cc1cc(C)c(NC(=S)NC(NC(=O)c2ccccc2)C(Cl)(Cl)Cl)c(C)c1` (stereo not given) was run?
Answer: The Potency was inconclusive [inhibitor, full curve, poor fit].

Question: How did the “activity change, negative = inhibition” value turn out when `Cc1ccccc1CNC(=O)Cc1csc2ccccc12` was run?
Answer: Its value is inactive: -14.7%.

Question: How did the Potency turn out when `CC(=O)OCC1=C(C(=O)O)N2C(=O)C(NC(=O)CCn3nc(C(F)(F)F)c(Br)c3C3CC3)C2SC1` (stereo not given) was run?
Answer: The Potency was inconclusive [inhibitor, partial curve, poor fit].

Question: Which Potency does the source give for `Cc1ccc(C)c(NC(=O)C(=O)NCCc2c[nH]c3ccccc23)c1` here?
Answer: Its Potency is inconclusive [inhibitor, partial curve, poor fit].

Question: Which Potency does the source give for `CCOC(=O)c1oc2ccccc2c1CN1CCN(c2ccccc2)CC1` here?
Answer: Its Potency is inconclusive [inhibitor, partial curve, poor fit].

Question: Which Potency does the source give for `COC(=O)c1c(NC(=O)C2CCCCC2C(=O)O)sc2c1CCCCC2` (stereo not given) here?
Answer: Its Potency is inconclusive [inhibitor, single point].

Question: `OC(CCN1CC2CCC(CC2)C1)(Cc1ccccc1)c1ccco1` (stereo not given) was tested. Which Potency did it give?
Answer: The Potency was inconclusive [inhibitor, single point].

Question: With `Cn1nc(C(C)(C)C)cc1NC(=O)C1(C)CCN1C(=O)c1ccccc1CCc1ccccc1` (stereo not given) as the compound, how does the Potency read?
Answer: The Potency was inconclusive [inhibitor, single point].

Question: How did the Potency turn out when `CCn1c(C(=O)N2CCC(Cc3ccccc3)CC2)cc2sccc21` was run?
Answer: Its Potency is inconclusive [inhibitor, single point].

Question: `CCOc1ccc(-c2[nH]ncc2Oc2ccccc2OCC)c(O)c1` was tested. Which Potency did it give?
Answer: The Potency was inconclusive [inhibitor, partial curve, poor fit].

Question: With `O=C(COc1ccc2c(c1)CCC2)NCc1ccccc1` as the compound, how does the Potency read?
Answer: The Potency was inconclusive [inhibitor, single point].

Question: How did the “activity change, negative = inhibition” value turn out when `CC(=O)N1CCN(C(=O)CC2OC(=O)c3ccccc32)CC1` (stereo not given) was run?
Answer: The value was inactive: 14.8%.

Question: How did the Potency turn out when `CSCC[C@H](NC(=O)C(C)Oc1ccc(Cl)cc1)c1nc2ccccc2[nH]1` (stereo not given in full) was run?
Answer: Its Potency is inconclusive [inhibitor, partial curve, poor fit].

Question: Which Potency does the source give for `COc1ccc(CCNCC(O)COc2ccc(Cl)cc2)cc1OC` (stereo not given) here?
Answer: The Potency was inconclusive [inhibitor, partial curve, poor fit].

Question: For `O=C(COc1ccc([N+](=O)[O-])cc1)Nc1ccccc1N1CCCC1`, which Potency is on record?
Answer: Its Potency is inconclusive [inhibitor, single point].

Question: `Cn1c(/C=C/c2ccc(Cl)cc2Cl)c([N+](=O)[O-])c(=O)n(C)c1=O` was tested. Which Potency did it give?
Answer: Its Potency is inconclusive [inhibitor, full curve, poor fit].

Question: How did the Potency turn out when `O=C(COC(=O)c1ccccc1[N+](=O)[O-])c1ccc(C2CCCCC2)cc1` was run?
Answer: Its Potency is inconclusive [inhibitor, partial curve, poor fit].

Question: How did the Potency turn out when `COc1ccc(Cl)cc1S(=O)(=O)NC(C)C(=O)NCc1ccc2c(c1)OCO2` (stereo not given) was run?
Answer: Its Potency is inconclusive [inhibitor, partial curve, poor fit].

Question: `CCOC(=O)C1(Cc2ccc(Cl)cc2)CCN(Cc2nccn2CC)CC1` was tested. Which Potency did it give?
Answer: Its Potency is inconclusive [inhibitor, partial curve, poor fit].

Question: For `Oc1c(CN2CCCCC2)cc(COCc2ccccc2)c2cccnc12`, which Potency is on record?
Answer: Its Potency is inconclusive [inhibitor, full curve, poor fit].

Question: Which Potency does the source give for `O=c1c(Cc2ccc(Cl)cc2Cl)c(O)ccn1Cc1ccc(Cl)cc1` here?
Answer: Its Potency is inconclusive [inhibitor, single point].

Question: For `Cc1cc(C)c2nc(N3CCC(C(=O)NCC4CCCO4)CC3)sc2c1` (stereo not given), which Potency is on record?
Answer: Its Potency is inconclusive [inhibitor, partial curve, poor fit].

Question: `CCn1c(CN2CCCCC2)nc2cc(NC(=O)COc3ccc(C(C)(C)C)cc3)ccc21` was tested. Which Potency did it give?
Answer: The Potency was inconclusive [inhibitor, full curve].

Question: Which “activity change, negative = inhibition” value does the source give for `CCc1ccn2cc(-c3cc(-c4ccccc4)no3)nc2c1` here?
Answer: Its value is inactive: -73.7%.

Question: For `CC1=C(C(=O)Nc2ccccc2)C(c2ccc(O)cc2)n2nc(-c3ccc(Cl)cc3)nc2N1` (stereo not given), which Potency is on record?
Answer: The Potency was inconclusive [inhibitor, single point].

Question: `O=C(CNCc1ccco1)Nc1ccc(N2CCCCCC2)cc1` was tested. Which Potency did it give?
Answer: Its Potency is inconclusive [inhibitor, partial curve, poor fit].

Question: With `CCc1ccc(-c2nc(CS(=O)CC(=O)NC3CCCCCC3)c(C)o2)cc1` (stereo not given) as the compound, how does the Potency read?
Answer: The Potency was inconclusive [inhibitor, partial curve, poor fit].

Question: For `Cc1ccc(CNC(=O)/C=C/c2cccs2)cc1`, which Potency is on record?
Answer: The Potency was inconclusive [inhibitor, single point].

Question: Which Potency does the source give for `O=C(CCCN1C(=O)/C(=C/c2ccc3c(c2)OCO3)SC1=S)Nc1cccc(C(=O)O)c1` here?
Answer: The Potency was inconclusive [inhibitor, partial curve, poor fit].

Question: With `CC1=C(C(=O)OC2CCCCC2)C(c2ccccc2)NC(=O)N1` (stereo not given) as the compound, how does the Potency read?
Answer: Its Potency is inconclusive [inhibitor, single point].

Question: Which Potency does the source give for `CCN(CC(=O)NCc1ccc(F)cc1)C(=O)/C=C/c1ccc(OC)cc1` here?
Answer: The Potency was inconclusive [inhibitor, partial curve, poor fit].

Question: With `Cc1cc(Cl)ccc1C(O)c1ncc(-c2cccc(C(F)(F)F)c2)[nH]1` (stereo not given) as the compound, how does the Potency read?
Answer: Its Potency is inconclusive [inhibitor, single point].

Question: `c1ccc(Oc2nc(-c3ccccn3)nc3ccccc23)cc1` was tested. Which Potency did it give?
Answer: The Potency was inconclusive [inhibitor, full curve, poor fit].

Question: With `CCOC(=O)CSc1cccc2cccnc12` as the compound, how does the Potency read?
Answer: Its Potency is inconclusive [inhibitor, full curve, poor fit].

Question: `CCC(C)[C@H](N)c1nnc(SCc2ccc(Cl)c(Cl)c2)o1` (stereo not given in full) was tested. Which Potency did it give?
Answer: The Potency was inconclusive [inhibitor, single point].

Question: With `Cc1nn(Cc2ccccc2)c(Cl)c1C(=O)OCc1nnc(-c2ccc(Cl)cc2)o1` as the compound, how does the Potency read?
Answer: The Potency was inconclusive [inhibitor, partial curve, poor fit].

Question: Which Potency does the source give for `CN(C)CCNC(=O)/C(=C/c1ccc(-c2ccc(Cl)cc2Cl)o1)NC(=O)c1ccccc1` here?
Answer: Its Potency is inconclusive [inhibitor, partial curve, poor fit].

Question: How did the Potency turn out when `S=C(NCCc1ccccc1)Nc1ccc(Cl)cc1` was run?
Answer: Its Potency is inconclusive [inhibitor, single point].

Question: Which “activity change, negative = inhibition” value does the source give for `Cc1oc(-c2cccc(Br)c2)nc1Cn1c(SCc2cccc(F)c2)nc2cccnc21` here?
Answer: The value was inactive: -5.33%.

Question: How did the “activity change, negative = inhibition” value turn out when `Cc1ccc(S(=O)(=O)CC(=O)N2CCN(c3cccc(C(F)(F)F)c3)CC2)cc1` was run?
Answer: Its value is inactive: 0.718%.

Question: With `CC1(C)Cc2c(sc(NC(=O)C(C)(C)C)c2C#N)C(C)(C)N1` as the compound, how does the Potency read?
Answer: Its Potency is inconclusive [inhibitor, partial curve, poor fit].

Question: Which “activity change, negative = inhibition” value does the source give for `COc1ccc(NC(=O)CCS(=O)(=O)c2ccc3c(c2)n(C)c(=O)c(=O)n3C)cc1Cl` here?
Answer: The value was inactive: 6.99%.

Question: For `Cc1nn(-c2ccccc2)c2c1C(c1ccc([N+](=O)[O-])cc1)N1C(=N2)C(=O)Nc2ccccc21` (stereo not given), which Potency is on record?
Answer: The Potency was inconclusive [inhibitor, partial curve, poor fit].

Question: For `COc1ccc(-c2ccc(OC)c([C@H]3[C@H]4C=CC[C@@H](C)[C@@H]4C(=O)N3Cc3ccccc3)c2)cc1`, which “activity change, negative = inhibition” value is on record?
Answer: The value was inactive: -2.61%.

Question: Which Potency does the source give for `O=C(Nc1nc(-c2ccccc2)cs1)c1ccc(S(=O)(=O)N2CCc3ccccc32)cc1` here?
Answer: Its Potency is inconclusive [inhibitor, partial curve, poor fit].

Question: For `C[C@H](O)[C@@H]1C(=O)N2CCc3ccc(N4CCN(C)CC4)cc3[C@@H]2C[C@@H]1N(C)C(=O)NC1CCCCC1`, which “activity change, negative = inhibition” value is on record?
Answer: The value was inactive: -3.26%.

Question: How did the Potency turn out when `CCc1ccc(S(=O)(=O)NC(=S)NC2CCCCC2)cc1` was run?
Answer: Its Potency is inconclusive [inhibitor, single point].

Question: Which “activity change, negative = inhibition” value does the source give for `Cc1c(C(=O)N2CCN(c3ncccn3)CC2)sc2nc3n(c(=O)c12)CCCC3` here?
Answer: The value was inactive: 6.37%.

Question: How did the Potency turn out when `Cc1ccc(-c2cnc(C(O)c3cc(F)cc(Cl)c3)[nH]2)cc1` (stereo not given) was run?
Answer: The Potency was inconclusive [inhibitor, single point].

Question: `COc1ccc(NC(=O)CSc2cn(CCNC(=O)c3ccc(OC)cc3)c3ccccc23)cc1` was tested. Which Potency did it give?
Answer: The Potency was inconclusive [inhibitor, full curve].

Question: How did the “activity change, negative = inhibition” value turn out when `CCCCC(=O)Nc1nnnn1CCC` was run?
Answer: Its value is inactive: 11.5%.

Question: For `O=C(CN1C(=O)CC(c2ccccc2)=Nc2ccccc21)NCc1ccco1`, which Potency is on record?
Answer: Its Potency is inconclusive [inhibitor, full curve, poor fit].

Question: With `CCc1nc2ccccc2c(C(=O)Oc2ccc(C(=O)OC)cc2)c1C` as the compound, how does the Potency read?
Answer: The Potency was inconclusive [inhibitor, partial curve, poor fit].

Question: How did the Potency turn out when `Cc1ccc(CN2C(=O)C3(c4ccccc42)N(c2ccc(C)c(Cl)c2)C(=O)CS3(=O)=O)cc1` (stereo not given) was run?
Answer: Its Potency is inconclusive [inhibitor, single point].

Question: How did the Potency turn out when `O=C(Nc1ccc(S(=O)(=O)N2CCCCCC2)cc1)c1c(F)cccc1F` was run?
Answer: The Potency was inconclusive [inhibitor, single point].

Question: With `Cc1ccc(S(=O)(=O)NCCOc2cc(C)ccc2C)cc1` as the compound, how does the Potency read?
Answer: Its Potency is inconclusive [inhibitor, single point].

Question: Which Potency does the source give for `O=C(COc1ccc(Br)cc1CNC1CCCC1)Nc1ccccc1` here?
Answer: Its Potency is inconclusive [inhibitor, single point].

Question: How did the Potency turn out when `COc1ccc(N2C(=O)CC(Sc3nnnn3-c3ccc(F)cc3)C2=O)cc1` (stereo not given) was run?
Answer: The Potency was inconclusive [inhibitor, single point].

Question: For `O=Cc1sc(=O)n(Cc2cccc(C(=O)O)c2)c1Cl`, which Potency is on record?
Answer: Its Potency is inconclusive [inhibitor, single point].

Question: With `COC(=O)CCCC[C@@H]1O[C@H](CCc2ccccc2)CC2=C1C(=O)OC(C)(C)O2` as the compound, how does the Potency read?
Answer: The Potency was inconclusive [inhibitor, partial curve, poor fit].
